Test results reported in the RNAGym collection of RNA variant scans (doi:10.7554/elife.90254).
The source gives no read counts; variants with many changes may rest on few reads.

B1: LINE1-mini (parent)
chain: GGCAGAGCUCAACACAGCGUGGCAAAGUGGCUGUGGCUAGACUGCC

Variants of: B1
Assay: self-cleavage, relative activity (ratio to wild type); higher = more cleavage; in vitro, sequencing; the parent is a self-cleaving ribozyme

Variant	self-cleavage
A6U G7U C15G U28A	0.01
A6U C15A U38A G40C	0.06
A6U G27U G44A	0.56
A6U G27U G44C	1.81
G7A C10G A14U G27U	0.01
G7A C8G U9A G21U C23G A24U A26U	0.05
A6U C8G C15U C23A	0.08
A6U U20C A25U	0.41
G7A C15A U20A A25C G30U	0.05
G7A A12C U32C G36C	0.04
A6U A25U U38C	0.18
G7A C10A C15A G22U C23U U32C	0.03
A6G G17A G27U C46A	0.02
A6G G30C G35U A41C	0.05
A6G G19U G27C C31G C37A	0.02
A6U C45G C46A	0.25
G7A C13A A41G	0.03
G7A A16U G30C	0.13
A6U A12U G22U A39U A41C	0
A6U C8G U34G G35U	0.03
G7A A12G G22U C46U	0.02
A6U C10A C13A	0.02
A6U C18G G40U	0.07
A6U C10U A12C	0.02

Variant	self-cleavage
A6G U9G G29C G36U	0.02
A6G G19U C23U G36U U43C	0
A6G U28A U32A C42G	0.06
A6U C13G U20A C23G C42G	0.02
A6G G22C G36U U43A	0
A6U A24C U34G C37A	0.06
A6U C15A U34G	0.08
A6U C8G C31U	0.03
A6U C13U G27U C46U	0.09
G7A A26C C31U	0.15
A6U A12G C23A	0.01
A6G G21C G22A U43A	0.24
G7A C8G C18G A25C G27U U32G	0.02
G7A C8A C10A C18A C45U	0.04
A6U G27A C37U C42U	0.03
A6U G29U G30U C31U G44C	0.08
G7A A24C U32C G44A	0.07
A6U C37A C46U	0.09
A6U A25U A26U	0.37
A6G G33A C46U	0.02
A6U C13G G22A G27U A41G	0.41
A6G G7U A41G	0.49
A6G G40U A41U C42A U43A	0.07
G7A C10A G30U A39U	0.06

Variant	self-cleavage
A6U A25U U28G G44C	0.63
A6G U28A C31U	0.02
A6U C18U G21C A26G	0.62
A6U C10A G30U U32C U34A G36U	0.01
A6G U9C A11G G44C	0.01
A6G G27A G29A	0.15
A6U G19U U28A	0.28
G7A C10A C31U	0.01
G7A C15G C31A C42A	0.06
A6U G17C C18A U32G U34A	0.04
G7A C13U A16G G19U C42U	0.05
A6U G35U A39C A41U	0.19
A6U G17A U28A A39U	0.02
G7A C10U G19U G33A	0.03
A6G U9C A25C	0.05
A6U C13A G30U U38A	0.08
A6U C13A G19C G30A G36A G40C	0.22
A6U C10A C45U	0.06
G7A C8A G19C	0.07
A6U U9A C13A A14U A16G G21C U28C	0.43
A6G G30A A41C	0.06
A6G G35U G36C	0.15
A6U U20C G22C G33C	0.1
G7A A11U G22C G30C U32G	0.02

Variant	self-cleavage
G7A A14C A16U C31G	0.05
G7A A16C C45U	0.13
G7A C8U C10G A39C G40U	0.01
A6U C8U U9C A12C G29U C37G	0.01
A6U U9G C13G A16U C18A U32A	0.01
G7A C10G A26U	0.02
A6U U34C G35A	0.11
A6G G21U U28A	0.01
A6U U9A A12U	0.37
G7A A11U A14U G36C	0.03
A6G U9C G27C A39C	0.01
A6G U9G A25U G33A G36C A41C	0
A6U C13U C23U	0.09
G7A A16G G17C G40U	0.09
G7A A11C C23G G40U	0
A6U C10A G40A	0.01
A6U A39U C42U	1.23
G7A C13A C45A	0.63
A6U U38A G44U	0.13
A6U G36A A39C C42G	0.03
A6U G36C C37U	0.05
A6G G7U C15A G44U	0.07
A6U U9G C23A A25G	0.14
G7A A12G A26C	0.02

Variant	self-cleavage
G7A A14C A16G U38G G40U	0.09
A6U C8A C18A G44A	0.73
A6G G22U C23A C45G	0.16
A6U A14G C45A	0.09
A6U C15A G29U	0.04
A6G U20C C31U C45U	0.02
G7A C13A A14G C18G G22U A39C C46G	0.51
A6U A12C A24G G33U	0.04
A6G G29U A41C G44A	0.03
A6U G7A G19C G30U C37U	0.01
G7A A16C G27A U28C C37G	0.02
A6U C37U A41G	0.05
A6U U28G G35U U43G	0.01
G7A C13A C23G U32C	0.16
G7A A11U U34A G40U	0.01
A6U C8A C15G G30U C37U	0.12
A6U G19A C31A G35A G40C C45G	0.04
A6U C8U G19C G21C G22A C31U	0.02
G7A A39G C46U	0
A6U U32G U34C	0.03
A6U C8G A12C C13G G30U	0.03
G7A C13U C15G C31A G36A A39U	0.05
G7A A16U G36U	0.13
G7A C10U A12U	0.03

Variant	self-cleavage
G7A A11G U28A A41G	0.01
A6U A12C C13U G22C G44A	0.02
A6U A16G U20G	0.12
A6U G7U G35A G36U	0.09
A6U G27U U34G G36U	0.05
G7A C13G A16U U20C G40U	0.02
A6U A24G G27A G44C	0.14
A6G G19C U20G G30A	0.08
A6U C18A C37U G40C	0.01
G7A A12C C42G U43G	0
A6U U20G G35A	0.05
A6U G21U G27A G33A	0.22
A6U G19U C46A	0.49
A6G G35A C45G	0.69
A6U C8U A24C G27C	0.55
G7A A24G G35U G36U A41C	0.02
A6U G19A G36U	0.05
A6G G30U U34G C42U	0
A6U A12U G19C A26G A41C	0.01
A6G G17A C23A	0.05
A6U A14C G36U A41C	0.02
A6U G22U U28C G29A G30C	0.5
G7A C10G A12U C37U	0.01
G7A C15G G21U	0.09

Variant	self-cleavage
A6U A11U C18A U28G G40C	0.01
G7A A12C G30C C31A C45U	0.02
G7A A14U A16U G40A U43A	0.01
A6G G40C C46G	0.02
A6U G33U C37U G44A	0.02
A6U C15U C45U	0.62
A6U C15U C23G U32G	0.03
A6G U9A C37A G40U	0.12
G7A C8U U28A	0.08
A6U A25U G27A C31U	0.42
A6U C8U A14U U20A G27U G30U G33U C42G	0.29
A6U C10U G35U	0.03
A6U A11G C45G	0.01
A6U C10U A14U A25C	0.01
G7A A11G A26U G29A C46U	0.03
A6U G7A U9A U34G	0.05
A6U G7A A11C A16C U32A G35A C46G	0.01
G7A C10U A25U A26U G30U	0.06
A6G G33U C45U	0.04
A6U A11C U20C G29C	0.06
A6G U20G G27U	0.03
A6G U32C G35A A39U	0.02
A6U C13U A26G	0.01
